The subject of assay [1] is HSkMC (human skeletal muscle cells). Briefly: cytotoxicity call (relative viability < 0.9). Particulars: 10 µM.
The test system of assay [2] is HepG2. Briefly: cytotoxicity call (relative viability < 0.9). The conditions noted are these: 10 µM.
The test system of assay [3] is S. aureus RN4220. Nature of the assay: growth inhibition call (relative growth <= 0.2). Particulars: 50 µM.

The list shows a part of the results.

With `C[C@@H]1CN([C@@H](C)CO)S(=O)(=O)c2ccc(-c3cncnc3)cc2O[C@@H]1CN(C)C(=O)c1ccc2c(c1)OCO2`, the cytotoxicity call in assay [1] and in assay [2] was “inactive” each time. Besides, the growth inhibition call in assay [3] was “inactive”.

Regarding `C[C@@H]1CCCCO[C@@H](CN(C)Cc2ccc3c(c2)OCO3)[C@H](C)CN([C@@H](C)CO)C(=O)c2cc(NC(=O)Nc3ccc(F)cc3)ccc2O1`, the cytotoxicity call in assay [1] and in assay [2] was “inactive” each time. In addition, the growth inhibition call in assay [3] is “inactive”.

As to `C[C@@H]1CN([C@@H](C)CO)C(=O)c2cc(NS(=O)(=O)c3cn(C)cn3)ccc2O[C@@H](C)CCCCO[C@H]1CN(C)C(=O)CCCN(C)C`, the cytotoxicity call in assay [1] and in assay [2] was “inactive” each time. Moreover, in assay [3], the growth inhibition call is “inactive”.

Regarding `CO[C@H]1/C=C\C=C(/C)C(=O)NC2=CC(=O)C(NCCN(C)C)=C(C[C@@H](C)C[C@H](OC)[C@H](O)[C@@H](C)/C=C(\C)[C@@H]1OC(N)=O)C2=O`, the cytotoxicity call in assay [1] and in assay [2] was “active” throughout. For the same compound, the growth inhibition call in assay [3] is “inactive”.

With `C[C@@H]1CN([C@@H](C)CO)C(=O)c2cc(NC(=O)c3ccccc3)ccc2O[C@@H](C)CCCCO[C@H]1CN(C)C(=O)CCC(F)(F)F`, the cytotoxicity call in assay [1] and in assay [2] was “inactive” throughout. Besides, in assay [3], the growth inhibition call is “inactive”.

Regarding `CCOC(=O)/C(C)=N/NC(C)=O`, the cytotoxicity call in assay [1] and in assay [2] was “inactive” each time. In addition, the growth inhibition call in assay [3] was “inactive”.

As for `C[C@H](CO)N1C[C@H](C)[C@H](CN(C)S(=O)(=O)c2ccccc2)Oc2ccc(NC(=O)Cc3ccccc3)cc2C1=O`, the cytotoxicity call in assay [1] and in assay [2] was “inactive” throughout. Further, the growth inhibition call in assay [3] is “inactive”.

Take `CC(=O)Oc1cc(OC(C)=O)c2c(c1)O[C@H](c1ccc(OC(C)=O)c(OC(C)=O)c1)[C@H](OC(C)=O)C2`: the cytotoxicity call in assay [1] and in assay [2] was “inactive” in each case. For the same compound, the growth inhibition call in assay [3] was “inactive”.

Consider `C[C@@H]1CN([C@H](C)CO)C(=O)c2cccc(NC(=O)C3CCCCC3)c2O[C@@H]1CN(C)C(=O)Nc1ccc(C(F)(F)F)cc1`, for which the cytotoxicity call in assay [1] and in assay [2] was “inactive” in each case. Also, the growth inhibition call in assay [3] is “active”.

For `Cc1noc(C)c1NC(=O)N(C)C[C@H]1OCCCC[C@@H](C)Oc2ccc(NC(=O)c3ccccc3)cc2C(=O)N([C@H](C)CO)C[C@@H]1C`, the cytotoxicity call in assay [1] and in assay [2] was “inactive” in each case. Further, the growth inhibition call in assay [3] is “inactive”.

In the case of `COc1ccc(NC(=O)N(C)C[C@@H]2OCCCC[C@@H](C)Oc3ccc(NC(=O)Nc4ccc(F)cc4)cc3C(=O)N([C@@H](C)CO)C[C@H]2C)cc1`, the cytotoxicity call in assay [1] and in assay [2] was “inactive” in each case. Further, the growth inhibition call in assay [3] was “inactive”.

For the compound `C[C@@H]1CCCCO[C@@H](CN(C)Cc2ccncc2)[C@H](C)CN([C@@H](C)CO)C(=O)c2cc(NC(=O)Nc3cccc4ccccc34)ccc2O1`, the cytotoxicity call in assay [1] and in assay [2] was “inactive” each time. In addition, the growth inhibition call in assay [3] is “inactive”.

Turning to `CC(C)NC(=O)Nc1ccc2c(c1)C(=O)N([C@H](C)CO)C[C@H](C)[C@@H](CN(C)S(=O)(=O)c1ccc(F)cc1)O2`, the cytotoxicity call in assay [1] and in assay [2] was “inactive” throughout. Besides, in assay [3], the growth inhibition call was “inactive”.

In the case of `C[C@H](CO)N1C[C@H](C)[C@@H](CN(C)Cc2ccncc2)OCCCC[C@H](C)Oc2ccc(NC(=O)C3CCCCC3)cc2C1=O`, the cytotoxicity call in assay [1] and in assay [2] was “inactive” throughout. Further, in assay [3], the growth inhibition call was “inactive”.

In the case of `C[C@@H]1CN([C@H](C)CO)C(=O)c2cc(NC(=O)Nc3ccc4c(c3)OCO4)ccc2O[C@@H]1CN(C)Cc1ccc(-c2ccccc2)cc1`, the cytotoxicity call in assay [1] is “inactive”. Further, in assay [2], the cytotoxicity call was “active”. In addition, the growth inhibition call in assay [3] is “inactive”.

Consider `Cc1ccc(S(=O)(=O)N(C)C[C@H]2OCCCC[C@H](C)Oc3ccc(NC(=O)Nc4ccc5c(c4)OCO5)cc3C(=O)N([C@@H](C)CO)C[C@H]2C)cc1`, for which the cytotoxicity call in assay [1] and in assay [2] was “inactive” each time. For the same compound, in assay [3], the growth inhibition call is “inactive”.

For the compound `C[C@@H]1CN([C@H](C)CO)C(=O)c2cc(NC(=O)CCC(F)(F)F)ccc2O[C@@H]1CN(C)S(C)(=O)=O`, the cytotoxicity call in assay [1] and in assay [2] was “inactive” each time. Further, in assay [3], the growth inhibition call is “inactive”.

For the compound `C[C@@H]1CN([C@@H](C)CO)C(=O)Cc2cc(NS(=O)(=O)c3ccccc3)ccc2O[C@H]1CN(C)S(C)(=O)=O`, the cytotoxicity call in assay [1] and in assay [2] was “inactive” throughout. Also, the growth inhibition call in assay [3] is “inactive”.

For the compound `Nc1nc(=O)n([C@@H]2CS[C@H](CO)O2)cc1F`, the cytotoxicity call in assay [1] and in assay [2] was “inactive” in each case. Also, the growth inhibition call in assay [3] is “inactive”.

Turning to `COc1cccc(CNC(=O)C[C@H]2C=C[C@H](NC(=O)C3CCOCC3)[C@@H](CO)O2)c1`, the cytotoxicity call in assay [1] and in assay [2] was “inactive” each time. In addition, in assay [3], the growth inhibition call is “inactive”.

As for `C[C@H]1CN([C@@H](C)CO)C(=O)c2cccc(NS(=O)(=O)c3ccccc3)c2O[C@@H]1CN(C)Cc1ccc(-c2ccccc2)cc1`, the cytotoxicity call in assay [1] and in assay [2] was “inactive” throughout. Besides, the growth inhibition call in assay [3] was “inactive”.

`C[C@H](CO)N1C[C@H](C)[C@H](CN(C)Cc2ccncc2)Oc2ccc(NC(=O)CCN3CCOCC3)cc2C1=O`: the cytotoxicity call in assay [1] and in assay [2] was “inactive” throughout. In assay [3], the growth inhibition call is “inactive”.

Turning to `COc1cc(-c2coc3cc(O)c(OC)c(O)c3c2=O)cc(O)c1OC`, the cytotoxicity call in assay [1] and in assay [2] was “inactive” each time. Besides, in assay [3], the growth inhibition call was “inactive”.

For the compound `CCS(=O)(=O)N1Cc2cc(C(=O)NCCOC)nc(-c3cccc(-c4ccncc4)c3)c2[C@@H]1CCO`, the cytotoxicity call in assay [1] and in assay [2] was “inactive” in each case. Besides, the growth inhibition call in assay [3] was “inactive”.

With `COc1ccc([C@@H]([C@H](Cc2ccccc2)OC(C)=O)N2C[C@@H](CC(=O)N(C)C)[C@@H]3[C@H]([C@@H]2Cc2ccccc2)N(C)O[C@H]3c2ccccc2)cc1`, the cytotoxicity call in assay [1] and in assay [2] was “inactive” in each case. In assay [3], the growth inhibition call is “inactive”.

Take `CCC(=O)Nc1ccc2c(c1)C(=O)N(C)C[C@H](OC)[C@@H](C)CN(C(=O)CN1CCOCC1)[C@@H](C)CO2`: the cytotoxicity call in assay [1] and in assay [2] was “inactive” in each case. In addition, in assay [3], the growth inhibition call is “inactive”.

Values taken from the antibiotic and cytotoxicity screens of Wong et al. (2023).
